Results on 42 compounds are retold here after publication PMC4336329 (PLoS ONE, 2015).

About 14,000 (4.5%) of roughly 310,000 compounds showed an effect of 50% or more. Effects have a minus sign here. The list shows a part of the results.
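Note: peak tail current of the secondary pulse compared with the same well before compound.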

Chain of human ether-à-go-go-related gene (hERG) potassium channel (Q12809 whole entry, looked up): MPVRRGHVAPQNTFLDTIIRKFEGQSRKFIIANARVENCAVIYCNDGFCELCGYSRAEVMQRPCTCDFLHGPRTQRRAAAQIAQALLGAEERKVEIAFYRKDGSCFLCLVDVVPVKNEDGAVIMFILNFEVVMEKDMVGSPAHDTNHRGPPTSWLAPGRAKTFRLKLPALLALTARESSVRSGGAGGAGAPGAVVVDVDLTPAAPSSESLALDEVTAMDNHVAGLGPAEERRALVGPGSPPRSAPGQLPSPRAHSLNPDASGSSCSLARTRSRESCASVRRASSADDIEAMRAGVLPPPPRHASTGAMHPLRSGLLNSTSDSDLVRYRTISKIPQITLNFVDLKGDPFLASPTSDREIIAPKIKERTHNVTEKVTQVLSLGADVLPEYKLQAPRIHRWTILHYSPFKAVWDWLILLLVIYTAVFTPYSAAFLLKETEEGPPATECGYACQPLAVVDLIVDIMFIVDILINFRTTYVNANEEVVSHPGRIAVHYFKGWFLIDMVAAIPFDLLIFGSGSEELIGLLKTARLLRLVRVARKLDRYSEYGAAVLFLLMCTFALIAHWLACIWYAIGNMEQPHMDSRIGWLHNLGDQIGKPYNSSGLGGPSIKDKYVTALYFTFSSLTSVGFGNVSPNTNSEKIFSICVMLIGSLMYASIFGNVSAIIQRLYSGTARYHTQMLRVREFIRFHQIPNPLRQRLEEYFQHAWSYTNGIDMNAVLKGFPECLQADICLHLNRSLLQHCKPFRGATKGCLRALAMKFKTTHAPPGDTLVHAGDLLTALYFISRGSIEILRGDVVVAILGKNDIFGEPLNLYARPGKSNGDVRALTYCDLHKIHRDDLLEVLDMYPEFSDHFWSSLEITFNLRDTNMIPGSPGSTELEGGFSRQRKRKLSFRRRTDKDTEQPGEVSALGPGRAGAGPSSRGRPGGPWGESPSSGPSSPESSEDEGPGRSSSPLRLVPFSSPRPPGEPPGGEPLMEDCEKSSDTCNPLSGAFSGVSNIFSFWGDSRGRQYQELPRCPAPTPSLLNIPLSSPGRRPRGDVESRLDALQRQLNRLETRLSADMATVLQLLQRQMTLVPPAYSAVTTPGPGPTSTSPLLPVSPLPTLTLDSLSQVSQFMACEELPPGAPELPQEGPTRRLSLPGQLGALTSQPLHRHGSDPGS

The experiment concerns the target human ether-à-go-go-related gene (hERG) potassium channel (human, UniProt Q12809). Description: primary screen, population patch clamp on CHO cells stably expressing hERG.
For the compound `CC(OC(=O)CNS(=O)(=O)c1ccc(C#N)cc1)C(=O)Nc1ccc(Cl)cn1` (stereo not drawn), the “hERG current change (%, negative = inhibition) at 10uM” value is -45.3%.

`O=C(Nc1ccc(S(=O)(=O)N2CCOCC2)cc1)c1ccc(=O)[nH]c1`: the “hERG current change (%, negative = inhibition) at 10uM” value worked out at 11.9%.

Take `CCN(CC)c1ccc(NC(=O)CCc2nnc3ccc(N4CCCC4)nn23)c(C)c1`: the “hERG current change (%, negative = inhibition) at 10uM” value is -9.8%.

Take `CCOc1cc2c(cc1OCC)-n1cccc1C(c1cc(C)c(OC)cc1C)NC2.Cl` (stereo not drawn): the “hERG current change (%, negative = inhibition) at 10uM” value was -62.1%.

On to `Cc1cc2c(cc1S(=O)(=O)NCc1ccccc1)NC(=O)CO2`, for which the “hERG current change (%, negative = inhibition) at 10uM” value was -0.941%.

For `Cc1ccccc1N=C(NOCc1ccc(Cl)cc1Cl)c1nonc1N`, the “hERG current change (%, negative = inhibition) at 10uM” value is recorded as -18.1%.

Consider `CC1(C)CC2(CCCN(C(=S)Nc3ccccc3)C2)CCO1` (stereo not drawn), for which the “hERG current change (%, negative = inhibition) at 10uM” value is on record as 14%.

On to `CN(CC(=O)NCc1ccc(Cl)cc1)S(=O)(=O)c1cccc2nsnc12`, for which the “hERG current change (%, negative = inhibition) at 10uM” value is listed as -52.5%.

Consider `Cc1cc(N2C(=O)C(O)=C(C(=O)c3ccco3)C2c2cccnc2)no1` (stereo not drawn), for which the “hERG current change (%, negative = inhibition) at 10uM” value was 7.94%.

Consider `COc1ccccc1Nc1nc(C)cc(=O)[nH]1`, for which the “hERG current change (%, negative = inhibition) at 10uM” value is on record as -7.91%.

Regarding `CCCCCOc1ccccc1C(=O)NCC(=O)O`, the “hERG current change (%, negative = inhibition) at 10uM” value amounted to 9.87%.

Take `CCc1nnc(NC(=O)C2Cc3ccccc3C(=O)O2)s1` (stereo not drawn): the “hERG current change (%, negative = inhibition) at 10uM” value was 12.1%.

In the case of `O=C(O)CCNS(=O)(=O)c1cccc2nsnc12`, the “hERG current change (%, negative = inhibition) at 10uM” value was found to be 7.88%.

Take `COc1ccc(-c2ccc(/C=C3/C(=N)N4C(C)=CSC4=NC3=O)o2)c([N+](=O)[O-])c1`: the “hERG current change (%, negative = inhibition) at 10uM” value stood at 9.58%.

Consider `Nc1cc(N)nc(SCC(=O)NCCC2=CCCCC2)n1`, for which the “hERG current change (%, negative = inhibition) at 10uM” value is -8.78%.

In the case of `COc1ccc(/C=C2\SC(=N)N(c3ccc(F)cc3)C2=O)cc1OC`, the “hERG current change (%, negative = inhibition) at 10uM” value was 17%.

Turning to `COc1ccccc1-c1cc(C(=O)N/N=C/c2ccc(C)s2)c2ccccc2n1`, the “hERG current change (%, negative = inhibition) at 10uM” value is 7.8%.

Regarding `CCOC(=O)c1ccccc1NC(=O)COC(=O)C1CCCC1`, the “hERG current change (%, negative = inhibition) at 10uM” value is listed as -2.49%.

For `COC(=O)C1C(=O)C2=C(CC1C)NC(C)=C(C(=O)OC1CCCC1)C2c1ccc(N(C)C)cc1` (stereo not drawn), the “hERG current change (%, negative = inhibition) at 10uM” value was -8.36%.

In the case of `COC(=O)c1sccc1NC(=O)CSc1ccccc1NC(=O)CNC(C)C`, the “hERG current change (%, negative = inhibition) at 10uM” value is listed as -6.04%.

Turning to `COc1ccc(CCNC(=O)CSc2ncnc3c2oc2ccccc23)cc1OC`, the “hERG current change (%, negative = inhibition) at 10uM” value is recorded as -13.1%.

As for `Cc1ccc(C2C(C=Nc3c(C)n(C)n(-c4ccccc4)c3=O)=C(c3ccccc3)Oc3ccccc32)cc1` (stereo not drawn), the “hERG current change (%, negative = inhibition) at 10uM” value amounted to 7.45%.

In the case of `O=C(O)c1nn(-c2ccccc2)ccc1=O`, the “hERG current change (%, negative = inhibition) at 10uM” value is 12.8%.

As for `O=[N+]([O-])c1cc(S(=O)(=O)N2CCCC2)ccc1N/N=C/c1cccnc1`, the “hERG current change (%, negative = inhibition) at 10uM” value is reported as 4.5%.

For `COc1ccc([N+](=O)[O-])cc1NC(=O)C(C)Sc1nc(-c2ccccc2)cs1` (stereo not drawn), the “hERG current change (%, negative = inhibition) at 10uM” value stood at 8.17%.

`Cc1ccccc1C(=O)O/N=C(\c1ccccc1)c1ccccn1`: the “hERG current change (%, negative = inhibition) at 10uM” value is given as -29.2%.

With `Cc1cc(C)n(-c2cc(N3CCN(C(=O)c4ccc(C(C)(C)C)cc4)CC3)ccc2[N+](=O)[O-])n1`, the “hERG current change (%, negative = inhibition) at 10uM” value is listed as -34.4%.

On to `COc1ccc(C2C3=C(CC(C)(C)CC3=O)Oc3ncn(CC(C)C)c(=N)c32)cc1` (stereo not drawn), for which the “hERG current change (%, negative = inhibition) at 10uM” value was -69.1%.

Take `O=C(CN1CCN(c2nc(-c3ccc(F)cc3)cs2)CC1)NCc1ccc2c(c1)OCO2`: the “hERG current change (%, negative = inhibition) at 10uM” value is recorded as -28.9%.

On to `CC1(c2ccc(OC(F)F)cc2)NC(=O)N(CC(=O)Nc2cccc(S(N)(=O)=O)c2)C1=O` (stereo not drawn), for which the “hERG current change (%, negative = inhibition) at 10uM” value is 6.01%.

`O=C(CN(C(=O)c1csnn1)c1ccc(F)c(Cl)c1)NCc1ccc(F)cc1`: the “hERG current change (%, negative = inhibition) at 10uM” value was determined as 7.3%.

Turning to `COc1ccc(C(CNC(=O)C2CCN(S(=O)(=O)c3ccc(F)cc3)CC2)N(C)C)cc1` (stereo not drawn), the “hERG current change (%, negative = inhibition) at 10uM” value was -6.63%.

Regarding `CCOC(=O)C1C(C)=C(Nc2ccc(OC)cc2)C(=O)N1c1ccc(OC)cc1` (stereo not drawn), the “hERG current change (%, negative = inhibition) at 10uM” value worked out at 10.4%.

Turning to `O=C(Cc1ccccc1)Nc1cccc(C(=O)N/N=C/c2ccco2)c1`, the “hERG current change (%, negative = inhibition) at 10uM” value is given as -2.77%.

Take `COc1cc(C(C)=O)ccc1OCC(O)CN1CCN(S(=O)(=O)c2ccccc2)CC1` (stereo not drawn): the “hERG current change (%, negative = inhibition) at 10uM” value was -11.5%.

As to `O=C(Nc1ccc2oc(-c3ccccc3F)nc2c1)c1ccc([N+](=O)[O-])o1`, the “hERG current change (%, negative = inhibition) at 10uM” value came to 9.46%.

In the case of `COc1ccc(CCNC(=O)c2ccc(OCc3c(C)noc3C)cc2)cc1OC`, the “hERG current change (%, negative = inhibition) at 10uM” value is -3.43%.

`COP(=O)(OC)C(Nc1cc(Cl)cc(Cl)c1)c1cccc(O)c1` (stereo not drawn): the “hERG current change (%, negative = inhibition) at 10uM” value was 15.9%.

As for `CCOC(=O)c1cccc(NC(=O)C2CCN(c3ncnc4c3nc3n4CCCCC3)CC2)c1`, the “hERG current change (%, negative = inhibition) at 10uM” value came to 11.5%.

In the case of `CC(=O)N1CCN=C1SCc1cccc(F)c1`, the “hERG current change (%, negative = inhibition) at 10uM” value amounted to 13.8%.

With `O=C(CSc1nnc(CN2CCOCC2)n1-c1ccccc1)Nc1ccc(Cl)cc1`, the “hERG current change (%, negative = inhibition) at 10uM” value was -32.5%.

Consider `CC(=O)c1ccc(N2Cc3ccccc3C2=NC(=O)c2cccs2)cc1`, for which the “hERG current change (%, negative = inhibition) at 10uM” value is on record as -20.6%.
